# ChEMBL document CHEMBL4888484, “Replenishing the malaria drug discovery pipeline: Screening and hit evaluation of the MMV Hit Generation Library 1 (HGL1) against asexual blood stage Plasmodium falciparum ,using a nano luciferase reporter read-out” (2022)
# About 540 (0.36%) of roughly 150,000 compounds showed an effect of 50% or more. Some of the results follow.
# Tested on: Plasmodium falciparum
# Assay: Primary screen in NF54 nanoGlo assay, in single point, at 2uM, 72h; a lower Z score goes with more inhibition
# Assay type: functional, Erythrocyte
# Conditions: timepoint 72 hour
Compound,% Inhibition,Z score
CCCC[C@H](N)C(=O)N1CCC(n2cccn2)CC1,-2%,0.14
CCc1ccc(CN2CCC[C@@H]2Cn2ccnc2)o1,-2%,0.31
O=C(c1cccc(S(=O)(=O)NCC2CC2)c1)N1CCC[C@H]1c1ccncc1,-2%,0.31
CCNCC#CCOc1ccc(Cl)c(Cl)c1,-2%,0.36
CN(C)[C@@H](CNC(=O)COc1ccccc1)c1ccsc1,-10%,1.12
O=C(NCc1ccccc1)C1CCN(Cc2nc3ccccc3o2)CC1,5%,-0.71
C[C@H]1c2cccn2CCN1CCn1cccn1,-10%,1.02
CCn1cc(S(=O)(=O)N[C@H](c2nccn2C)C2CC2)cn1,-9%,1.62
O=C(NCc1cc2n(n1)CCCN(Cc1ccc3occc3c1)C2)C1CCC1,-2%,0.23
C1CCC(c2nc3c(c(NCCN4CCOCC4)n2)CCOCC3)C1,2%,-0.21
CCN(C)CC(=O)N1CCC[C@@]2(CCC(=O)N(Cc3ccccn3)C2)C1,2%,-0.32
CC(C)[C@H](NCc1ccc2c(c1)CCO2)C(=O)OC(C)(C)C,-5%,0.68
COc1ccc(NC(=O)[C@H](C)OCC(C)C)c(OC)c1,9%,-1.16
COc1cccc(C(=O)NCc2ccc3c(c2)CCN3C(=O)CC(C)C)c1,-12%,1.87
Cc1nc(O)ccc1C(=O)N(C)C1CCOC(c2ccc(F)cc2)C1 (stereo not drawn),5%,-0.8
O=S(=O)(CCn1nnc2c1CCCC2)C1CCCCC1,-1%,0.2
COCCNC(=O)c1cc(NS(=O)(=O)c2ccc(C(C)(C)C)cc2)cnc1N1CCNCC1,-8%,1.1
CCCn1cc(C2=CCN(C(=O)Nc3cccc(C)c3C)CC2)c2cccnc21,-10%,1.27
CCn1nc(C)c(NS(=O)(=O)c2cn[nH]c2C(C)(C)C)c1C,0%,0.06
CC(Cc1ccsc1)NC(=O)C(C)N1C(=O)CCC1=O (stereo not drawn),-8%,1.15
Cc1ccc(CCC(=O)N2CCc3sccc3[C@@H]2C)cc1Cl,-19%,3.05

Compound,% Inhibition,Z score
CCOc1ccccc1C(=O)Nc1cc(-c2ccsc2)no1,-23%,2.21
COc1cccc([C@@H]2CNC(=O)c3nc(-c4noc(C)n4)[nH]c3C2)c1,-10%,1.81
COc1cccc(-c2nc3ccc(F)cc3[nH]2)c1OCCn1ccnc1,-11%,1.17
Cn1cnc(C(=O)N2C3CCC2CC(F)C3)c1 (stereo not drawn),8%,-1.47
COc1ccc(C(=O)N2C[C@]3(C)C[C@H]2CC(C)(C)C3)cc1OC1CCN(C(C)C)CC1,17%,-2.25
O=C(NC1=NN(c2ccccc2)C(=O)[C@@]1(O)S(=O)(=O)O)c1ccccc1,-1%,0.14
CC(C)C1CN(C(=O)NC2CCOC(c3ccnn3C)C2)C1C(C)C (stereo not drawn),3%,-0.61
O=C(CN1C(=O)CNC1=O)N(CCOc1ccccc1)C[C@H]1CCCO1,-2%,0.26
O=C(O)c1cccc(N2CCCc3occc3C2)n1,12%,-1.57
CCc1ncnc(N2CC(NC3COC3)C2)c1F,-4%,0.63
CS(=O)(=O)c1ccccc1N1CCC[C@H]1c1ccsc1,-6%,0.54
Cc1nc2ccc(-c3ccc(C(=O)N[C@H]4CS(=O)(=O)C[C@@H]4O)cc3)cn2n1,-27%,4.69
NC(=O)c1ccsc1NC(=O)Cn1ccnc1,-9%,1.43
COc1cccc(F)c1C(=O)N(C)CC[C@H]1CCCCO1,-21%,2.39
Clc1cnc(NCCc2noc(C3CC3)n2)nc1,-10%,1.31
CCOc1ccccc1NC(=O)CC(=O)N(CC)CCN1CCCCCC1,-2%,0.49
COCCn1nnnc1[C@]1(N(C)C)CCN(C(=O)c2cc(C3CC3)[nH]n2)C1,-12%,1.54
FC(F)(F)CCCCNc1ncccn1,-1%,0.25
COc1ccc(Cc2nc([C@H](O)c3ccccc3)n(CC(C)(C)O)n2)cc1,10%,-1.98
CCN(CC)C(=O)C1CCCN(C2CCC(=O)N(Cc3cc4c(cc3Cl)OCO4)CC2)C1 (stereo not drawn),-4%,0.71
O=C(COc1ccc(Cl)cc1Cl)N[C@H](CCC(=O)OCc1ccccc1)C(=O)OCc1ccccc1,-7%,0.87

Compound,% Inhibition,Z score
COc1ccc(Nc2nc(N3CCOCC3)nc(N3CCCc4ccccc43)n2)cc1,-3%,0.53
CCCc1cccc(C(C)C)c1NC(=O)N1CCC[C@H]1C(=O)N(CC)CC,-13%,1.82
CNC(=O)c1cccc(-c2noc(C3CN(Cc4ccc(Br)cc4)C3)n2)c1,-3%,0.33
CCOc1cc(CNC(=O)c2sc(N3CCCC3=O)nc2C(C)C)cc(OCC)c1OCC,-11%,0.99
COc1ccc(CNC(=O)c2ccc(C)c(-n3c(C)nc4cccnc43)c2)c(OC)c1,-14%,2.22
Cc1ncnc(N2CCC(c3nnc(CN4CCC(O)CC4)n3C)CC2)c1C,0%,-0.03
Cn1nccc1C(=O)N1CCC[C@H]1c1cccc(F)c1,-14%,2.69
CC(C)(C)n1cc(C(=O)O[C@@H]2CCC[C@H]2n2cccn2)cn1,-13%,1.99
CCN(CCn1cccn1)C1CCN(Cc2ccco2)CC1,-2%,0.27
Cc1ccc(C)c(OCc2cc(C(=O)N[C@@H](C)Cc3cccc(C)n3)no2)c1,-16%,2.06
O=C(CC1CCOCC1)Nc1nnc(C2CCOCC2)s1,3%,-0.31
O=C1CCc2cc(C(=O)N3CCN(c4cnccn4)CC3)ccc2N1,0%,-0.06
CCCN1c2ccccc2NC2C1C(C(C)=O)C(=O)N2c1ccccn1 (stereo not drawn),6%,-0.76
CN(C(=O)c1ccc(-c2ccc3c(c2)OCCO3)s1)C1CCCCC1,-14%,2.04
Cc1ccc(NC(=O)CCC(=O)N(c2ccccc2)c2ccccc2)cc1Cl,9%,-1.38
CC(C)C(=O)N1CCC[C@H](S(=O)(=O)N2CCc3ccccc32)C1,-4%,0.44
CN(C[C@H]1CCOC1)C(=O)Nc1cc(F)cc(F)c1,-17%,2.2
CCc1nnc2n1C[C@@H](NCc1cn(C)nc1-c1ccncc1)CC2,-2%,0.17
O=S(=O)(c1cccc2nsnc12)N(Cc1cccc(OC[C@H]2CCOC2)c1)C1CC1,-14%,1.84
COc1nc(NS(=O)(=O)c2ccc(Cl)c(F)c2Cl)n[nH]1,-13%,1.34
CCC(C)C(NC(=O)OC(C)(C)C)c1nnc(S(=O)(=O)Cc2cccc(F)c2)o1 (stereo not drawn),-4%,0.37

Compound,% Inhibition,Z score
Cc1nc(NC(=O)Cc2noc3ccccc23)sc1-c1ccccn1,-30%,5.94
C[C@@H](c1cnn(C)c1)N(C)C(=O)c1occ2c1CCC2,-6%,1
C=CCO[C@H]1CCN(C(=O)c2cccc3cc[nH]c23)C1,-7%,0.92
COC(=O)CO[C@@H]1CO[C@H]2[C@@H]1OC[C@@H]2NS(=O)(=O)c1ccc2ccccc2c1,-13%,1.62
Cn1cc(C#N)cc1C(=O)N[C@H]1CCOC[C@@H]1OCc1cscn1,-5%,0.94
CCOc1cc2cc(c1)C(=O)N(C)CC(=O)N[C@@H]1CN(C(=O)CN3CCOC3=O)CC[C@@H]1OCc1cccc(c1)O2,-17%,2.17
Cc1cccc(N2CCN(C(=O)[C@@H]3Cc4ccccc4C(=O)O3)CC2)c1C,-6%,0.64
CCc1nc(O)c(C(=O)N2CCCC[C@H]2c2cncn2CC)cc1C,9%,-1.22
Cc1nn(Cc2ccon2)c(=O)c2ccccc12,-4%,0.62
NS(=O)(=O)c1ccc(CCNC(=O)c2ccc(N3CCOc4ccccc43)s2)cc1,1%,-0.13
O=C(O)C[C@H]1CCCN(S(=O)(=O)CCc2ccccc2Br)C1,-2%,0.29
O=S1(=O)C[C@H](N2CCN(c3ccccn3)CC2)[C@@H](S(=O)(=O)c2ccccc2)C1,-6%,0.79
Cc1ncsc1CCN(C)Cc1ccccn1,-19%,2.48
C[C@H](NC(=O)c1cc2n(n1)CCCC2)c1ccccc1,-30%,3.47
Cc1cccnc1NC(=O)N[C@H]1CCC(=O)NC1,-12%,1.09
COc1ccc(CNC(=O)N2CCc3[nH]c(-c4ccccc4)nc3C2)cc1,-14%,2.04
C[C@@H]1CN(C(=O)c2nn(C)cc2Cl)CC[C@]1(C)O,-4%,0.64
CNC(=O)c1nc(-c2ccccc2)n2c1CCN(C(=O)NCCc1ccccc1)CC2,-18%,2.12
COCCOCC(=O)NC[C@@]12CCCC=C1NC(=O)CC2,3%,-0.41
CCc1n[nH]cc1C(=O)N[C@H]1CCN(Cc2cccnc2)C[C@@H]1O,-3%,0.35
Cc1csc([C@@H](C#N)C(=O)c2ccc(N3CCCC3)nc2)n1,9%,-0.99
